# According to paper PMC5700166:
# Only a part is listed here, and it is no random draw. The list includes weakly bound sequences.
# Experiments:
# Test in all cases: protein-binding microarray (PBM)
# Conditions in all cases: PBM: ~300 nM protein, 6 mM HEPES pH 7.8, 80 mM KCl, 0.5 mM EDTA, 0.5 mM EGTA, 6% glycerol, 35 ng/ul poly-dIdC, 1% milk, 1 h, room temperature; Ap Aiptasia and Nv Nematostella (sea anemones) / Co Capsaspora / Aq Amphimedon (sponge) / Dm Drosophila / Hu human; RHD is the Rel homology domain; high values mean tight binding; most listed sequences are background and not binding sites; double strand, one strand shown
# GST-Ap-NF-kB RHD = molecular target: T1, GST-Ap-NF-kB RHD (UniProt A0A913YAJ5)
# T1 sequence: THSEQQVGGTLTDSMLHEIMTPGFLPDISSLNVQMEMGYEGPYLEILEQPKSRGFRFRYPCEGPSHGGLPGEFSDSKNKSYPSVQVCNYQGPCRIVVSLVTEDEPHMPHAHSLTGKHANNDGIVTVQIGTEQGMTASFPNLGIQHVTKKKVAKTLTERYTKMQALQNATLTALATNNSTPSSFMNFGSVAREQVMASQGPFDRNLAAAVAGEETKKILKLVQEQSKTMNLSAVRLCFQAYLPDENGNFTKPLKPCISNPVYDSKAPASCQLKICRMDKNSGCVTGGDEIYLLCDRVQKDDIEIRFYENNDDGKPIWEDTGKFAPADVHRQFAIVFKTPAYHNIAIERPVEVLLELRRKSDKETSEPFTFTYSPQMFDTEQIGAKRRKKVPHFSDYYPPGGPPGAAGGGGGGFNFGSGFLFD
# [1] = molecular target: T2, GST-Nv-NF-kB (Cys allele) (UniProt E5G601)
# T2 sequence: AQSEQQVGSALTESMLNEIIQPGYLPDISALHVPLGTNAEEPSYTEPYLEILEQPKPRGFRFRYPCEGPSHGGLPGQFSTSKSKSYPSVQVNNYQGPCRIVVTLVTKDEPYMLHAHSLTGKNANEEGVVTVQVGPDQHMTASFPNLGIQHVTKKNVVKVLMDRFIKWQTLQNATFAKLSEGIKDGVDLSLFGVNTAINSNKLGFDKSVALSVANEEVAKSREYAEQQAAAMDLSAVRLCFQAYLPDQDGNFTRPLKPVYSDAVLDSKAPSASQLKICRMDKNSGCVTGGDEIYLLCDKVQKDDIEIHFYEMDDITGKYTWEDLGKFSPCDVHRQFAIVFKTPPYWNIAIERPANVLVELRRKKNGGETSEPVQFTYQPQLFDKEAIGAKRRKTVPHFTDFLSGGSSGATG
# GST-Co-NF-kB = molecular target: T3, GST-Co-NF-kB (UniProt F1ARL5)
# T3 sequence: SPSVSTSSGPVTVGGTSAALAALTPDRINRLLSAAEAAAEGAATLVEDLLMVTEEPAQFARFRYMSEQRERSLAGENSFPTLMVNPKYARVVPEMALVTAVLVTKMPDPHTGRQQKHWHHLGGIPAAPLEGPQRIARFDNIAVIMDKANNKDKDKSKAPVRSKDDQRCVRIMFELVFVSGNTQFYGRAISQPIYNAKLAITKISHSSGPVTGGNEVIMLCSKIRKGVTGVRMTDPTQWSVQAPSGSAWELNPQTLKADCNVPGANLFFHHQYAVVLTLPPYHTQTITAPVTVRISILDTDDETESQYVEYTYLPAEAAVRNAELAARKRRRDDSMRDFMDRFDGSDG
# GST-Dm-Relish = molecular target: T4, GST-Dm-Relish (UniProt Q94527)
# T4 sequence: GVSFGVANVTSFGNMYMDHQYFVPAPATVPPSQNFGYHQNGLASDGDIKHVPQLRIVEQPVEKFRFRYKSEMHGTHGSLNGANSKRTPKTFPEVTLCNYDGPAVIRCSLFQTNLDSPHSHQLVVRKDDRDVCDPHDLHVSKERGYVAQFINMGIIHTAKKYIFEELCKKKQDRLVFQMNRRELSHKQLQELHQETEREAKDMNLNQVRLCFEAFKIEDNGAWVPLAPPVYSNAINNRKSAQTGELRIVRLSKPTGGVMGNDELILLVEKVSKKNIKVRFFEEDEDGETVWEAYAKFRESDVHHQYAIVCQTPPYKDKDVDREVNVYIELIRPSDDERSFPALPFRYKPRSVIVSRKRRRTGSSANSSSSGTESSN
# GST-Aq-NF-kB = molecular target: T5, GST-Aq-NF-kB (UniProt A9Y5G7)
# T5 sequence: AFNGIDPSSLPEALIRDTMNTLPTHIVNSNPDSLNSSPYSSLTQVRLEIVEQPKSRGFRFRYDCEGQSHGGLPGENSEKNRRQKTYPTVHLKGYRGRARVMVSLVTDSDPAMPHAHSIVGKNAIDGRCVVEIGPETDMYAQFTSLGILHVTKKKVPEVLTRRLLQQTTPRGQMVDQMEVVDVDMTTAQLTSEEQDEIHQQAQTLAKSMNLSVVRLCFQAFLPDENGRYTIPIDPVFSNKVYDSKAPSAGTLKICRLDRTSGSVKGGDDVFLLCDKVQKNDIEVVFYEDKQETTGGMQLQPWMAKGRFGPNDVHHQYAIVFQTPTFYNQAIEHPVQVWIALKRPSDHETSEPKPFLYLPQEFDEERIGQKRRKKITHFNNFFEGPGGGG
Sequence,binding signal (GST-Ap-NF-kB RHD),binding signal [1],binding signal (GST-Co-NF-kB),binding signal (GST-Dm-Relish),binding signal (GST-Aq-NF-kB)
CCGATTAACATCAGACCTGTGCCTGATGTTAATCGGGTCTTGATTCGCTTGACGCTGCTG,0.047 z-score,-1.07 z-score,-1.16 z-score,-1.34 z-score,-0.555 z-score
CCGATTAACATCACTAGGTCGCCTGATGTTAATCGGGTCTTGATTCGCTTGACGCTGCTG,-0.324 z-score,-0.322 z-score,0.000351 z-score,-0.57 z-score,-0.512 z-score
CCGATTAACATCACTGGAATTTCTGATGTTAATCGGGTCTTGATTCGCTTGACGCTGCTG,0.353 z-score,-0.329 z-score,0.367 z-score,0.851 z-score,0.936 z-score
CCGATTAACATCACGATCAGCAGTGATGTTAATCGGGTCTTGATTCGCTTGACGCTGCTG,-0.123 z-score,-0.401 z-score,0.543 z-score,0.0982 z-score,-0.326 z-score
CCGATTAACATCAGCGTTGGATGTGATGTTAATCGGGTCTTGATTCGCTTGACGCTGCTG,0.21 z-score,-0.813 z-score,-0.409 z-score,0.0133 z-score,-0.183 z-score
CCGATTAACATCAATAATTTTCCTGATGTTAATCGGGTCTTGATTCGCTTGACGCTGCTG,-0.14 z-score,0.287 z-score,0.806 z-score,0.631 z-score,0.956 z-score
CCGATTAACATCATAGTGGCTAATGATGTTAATCGGGTCTTGATTCGCTTGACGCTGCTG,-0.486 z-score,0.124 z-score,0.118 z-score,-0.086 z-score,-0.274 z-score
CCGATTAACATCAAAATTCCAGATGATGTTAATCGGGTCTTGATTCGCTTGACGCTGCTG,0.228 z-score,-0.0709 z-score,0.256 z-score,0.504 z-score,0.713 z-score
CCGATTAACATCAGGGTTGCAACTGATGTTAATCGGGTCTTGATTCGCTTGACGCTGCTG,-0.256 z-score,-0.268 z-score,-0.578 z-score,-0.208 z-score,-0.51 z-score
CCGATTAACATCACTTACGAATTTGATGTTAATCGGGTCTTGATTCGCTTGACGCTGCTG,-0.694 z-score,-0.0654 z-score,0.239 z-score,-0.112 z-score,-0.283 z-score
CCGATTAACATCACCTCAACCAATGATGTTAATCGGGTCTTGATTCGCTTGACGCTGCTG,0.199 z-score,-0.0889 z-score,0.877 z-score,-0.0663 z-score,0.352 z-score
CCGATTAACATCAACGCTGTCCTTGATGTTAATCGGGTCTTGATTCGCTTGACGCTGCTG,-0.378 z-score,0.288 z-score,-0.171 z-score,-0.688 z-score,-0.263 z-score
CCGATTAACATCAGAGAAACCAATGATGTTAATCGGGTCTTGATTCGCTTGACGCTGCTG,-0.0342 z-score,-0.154 z-score,-0.0331 z-score,-0.492 z-score,-0.225 z-score
CCGATTAACATCACCGAACTAACTGATGTTAATCGGGTCTTGATTCGCTTGACGCTGCTG,0.587 z-score,-0.0576 z-score,0.301 z-score,0.62 z-score,0.329 z-score
CCGATTAACATCACATTGTTGGATGATGTTAATCGGGTCTTGATTCGCTTGACGCTGCTG,-0.55 z-score,0.169 z-score,-0.225 z-score,0.349 z-score,-0.259 z-score
CCGATTAACATCAATGTGCCCGTTGATGTTAATCGGGTCTTGATTCGCTTGACGCTGCTG,-0.436 z-score,-0.709 z-score,-0.412 z-score,-0.393 z-score,-0.125 z-score
CCGATTAACATCATAGGTTCTCGTGATGTTAATCGGGTCTTGATTCGCTTGACGCTGCTG,0.477 z-score,-0.972 z-score,0.511 z-score,-0.5 z-score,-0.342 z-score
CCGATTAACATCAGATAAAAGAATGATGTTAATCGGGTCTTGATTCGCTTGACGCTGCTG,-0.424 z-score,0.641 z-score,-0.0593 z-score,-0.091 z-score,-0.395 z-score
CCGATTAACATCAACAGAGTGCGTGATGTTAATCGGGTCTTGATTCGCTTGACGCTGCTG,-0.284 z-score,-0.267 z-score,0.0114 z-score,-0.125 z-score,-0.369 z-score
CCGATTAACATCAAAGCTTATCTTGATGTTAATCGGGTCTTGATTCGCTTGACGCTGCTG,-0.909 z-score,-0.644 z-score,-0.781 z-score,-0.925 z-score,-0.56 z-score
CCGATTAACATCACGGGCATGTATGATGTTAATCGGGTCTTGATTCGCTTGACGCTGCTG,-0.196 z-score,-0.131 z-score,-0.292 z-score,0.139 z-score,-0.0637 z-score
CCGATTAACATCAGGCAAGTCCATGATGTTAATCGGGTCTTGATTCGCTTGACGCTGCTG,0.38 z-score,-0.745 z-score,-0.574 z-score,-0.151 z-score,0.464 z-score
CCGATTAACATCAGGCATGGTCCTGATGTTAATCGGGTCTTGATTCGCTTGACGCTGCTG,-0.994 z-score,-1.28 z-score,-1.29 z-score,-1.08 z-score,-0.598 z-score
CCGATTAACATCAGACACTTTTCTGATGTTAATCGGGTCTTGATTCGCTTGACGCTGCTG,-0.434 z-score,-0.0483 z-score,-0.0552 z-score,0.174 z-score,-0.168 z-score
CCGATTAACATCACCAATTTTCCTGATGTTAATCGGGTCTTGATTCGCTTGACGCTGCTG,0.372 z-score,0.48 z-score,0.602 z-score,0.117 z-score,0.336 z-score
